The results in this text go back to the supplement of paper PMC4604168 (melanoma cell lines).

The structures appear in SMILES notation. The list shows a part of the results. Single values are uncertain, as repeats are few or missing.

Some test systems named below: MZ2-MEL; MeWo; RPMI7951; RVH-421; SkMel28; SkMel2; SkMel30; SkMel5; UACC257; UACC62; WM115; WM1716; WM1745; WM3526; WM3619; WM451Lu.
Holding throughout (experiment): cell count relative to DMSO control; melanoma cells; higher = more viable cells
Conditions in all cases: library dose: low library concentration; 72 h
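Note: cell number obtained by counting DAPI-stained nuclei in high-throughput microscope images with image analysis software, screen run in 1,536-well plates.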

As for `NC(=O)c1ccc(N(C(N)=O)c2c(F)cccc2F)nc1-c1ccc(F)cc1F` + O=C(O)c1ccc(-c2c[nH]c3ncc(-c4ccccc4)cc23)cc1C1CCCC1 [GSK650394] (first compound 0.4 µM, partner dose 0.16 µM), the cell count was determined as 92.3% in the assay with MZ2-MEL; 93.4% in the assay on MeWo; 96.3% with RPMI7951; 77.9% in the assay on RVH-421; 88.3% in the assay with SkMel28; 101% in the assay with SkMel2. Besides, the cell count was 99.5% in the assay with SkMel30; 93.5% with SkMel5; 84.2% with UACC257; 101% in the assay on UACC62; 102% in the assay with WM115; 107% with WM1716. The cell count was determined as 101% in the assay on WM1745, 88.1% with WM3526, 99.6% in the assay on WM3619 and 95.8% with WM451Lu.
For `CN(NC(=O)CC(=O)NN(C)C(=S)c1ccccc1)C(=S)c1ccccc1` + COc1cc2c(Oc3ccc4[nH]c(C)cc4c3F)ncnc2cc1OCCCN1CCCC1 [cediranib] (first compound 0.006 µM, partner dose 0.4 µM), the cell count was determined as 110% in the assay on MZ2-MEL; 98.7% in the assay with MeWo; 123% with RPMI7951; 87.4% in the assay on RVH-421; 104% in the assay with SkMel28; 104% in the assay on SkMel2. The cell count with SkMel30 is 88.9%; in the assay on SkMel5, 93.4%; in the assay on UACC257, 84%; with UACC62, 88%; with WM115 it was 89.1%; in the assay with WM1716 it was 96%. The cell count was 45.1% in the assay with WM1745, 100% with WM3526, 51.6% in the assay with WM3619 and 86.5% with WM451Lu.
For `CC(C)(C)c1cnc(CSc2cnc(NC(=O)C3CCNCC3)s2)o1` + CN(NC(=O)CC(=O)NN(C)C(=S)c1ccccc1)C(=S)c1ccccc1 [STA4783] (first compound 0.01 µM, partner dose 0.006 µM), the cell count in the assay on MZ2-MEL was 108%; in the assay with MeWo, 90.8%; in the assay with RPMI7951 it was 102%; in the assay with RVH-421, 96.4%; in the assay with SkMel28, 93.7%; with SkMel2, 81.4%. Also, the cell count with SkMel30 was determined as 85.3%; with SkMel5, 113%; in the assay with UACC257, 77.5%; in the assay on UACC62, 76.2%; in the assay on WM115 it was 77.3%; with WM1716, 69.5%. For the same molecule, the cell count in the assay with WM1745 turned out to be 48.5%; in the assay on WM3526 it was 109%; in the assay with WM3619, 44.7%; in the assay with WM451Lu, 98.8%.
Take `CCCCCCCCc1ccc(CCC(N)(CO)CO)cc1` [fingolimod] + O=S(=O)(c1ccccc1)N(CC(F)(F)F)c1ccc(C(O)(C(F)(F)F)C(F)(F)F)cc1 [T0901317] (first compound 2 µM, partner dose 1.4 µM): the cell count came out at 94.7% in the assay with MZ2-MEL; 96.3% in the assay on MeWo; 91% in the assay on RPMI7951; 93.3% in the assay on RVH-421; 88% in the assay with SkMel28; 87.1% with SkMel2. The cell count came to 113% with SkMel30; 70% with SkMel5; 84.7% with UACC257; 62% in the assay on UACC62; 91.8% in the assay on WM115; 72.5% with WM1716. Also, the cell count in the assay on WM1745 came out at 60.5%; in the assay with WM3526, 79.7%; in the assay with WM3619, 68.2%; in the assay on WM451Lu, 86.2%.
On to `NC(=O)c1ccc(N(C(N)=O)c2c(F)cccc2F)nc1-c1ccc(F)cc1F` + CO[C@@H]1[C@H](N(C)C(=O)c2ccccc2)C[C@H]2O[C@]1(C)n1c3ccccc3c3c4c(c5c6ccccc6n2c5c31)C(=O)NC4 [Midostaurin] (first compound 0.4 µM, partner dose 0.08 µM), for which the cell count in the assay with MZ2-MEL amounted to 92.3%; with MeWo, 83.5%; in the assay with RPMI7951, 83.2%; in the assay on RVH-421, 6.41%; with SkMel28, 92.9%; in the assay with SkMel2 it was 91.1%. Also, the cell count amounted to 121% in the assay with SkMel30; 84.3% in the assay on SkMel5; 65.5% in the assay on UACC257; 94.9% in the assay on UACC62; 82.8% in the assay on WM115; 78.8% with WM1716. Also, the cell count was 90.2% in the assay on WM1745, 94.3% in the assay on WM3526, 108% in the assay with WM3619 and 108% in the assay on WM451Lu.
